# Data: PubChem BioAssay AID504832 (National Center for Advancing Translational Sciences (NCATS), 2011)
# Out of some 310,000 compounds screened, about 18,000 (5.8%) were called active. The shares of active, inactive and inconclusive entries below differ from those in the screen. Calls come from the whole dose curve; as a rule, active = well fitted inhibition curve with a large enough effect; inconclusive = small, poorly fitted or top-dose-only effect, or another doubt; inactive = no such curve, though single readings can be large or run the other way. Potencies of inconclusive entries are left out as doubtful fits.
# Test: Primary qHTS for delayed death inhibitors of the malarial parasite plastid, 48 hour incubation
# Conditions: P. falciparum luciferase growth in erythrocytes; series mostly up to 28.7 µM; activity change, negative = inhibition: at the top concentration
# Procedure, shortened: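 Growth was read as firefly luciferase luminescence after a 48 h, 37 C, 5% CO2 exposure of compounds to reporter-bearing P. falciparum cultures (0.1% parasitemia, 2% hematocrit final) in Albumax-supplemented RPMI 1640.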
# % is set by controls: 0 for no effect and ±100 for the full control effect; potency is the fitted concentration of half-maximal effect; tags give direction and shape of the fitted curve.
Structure (SMILES),Potency,"activity change, negative = inhibition"
COC(=O)C1=C(c2cccc(C#N)c2)C[C@@H]2CC[C@H]1N2C(=O)N1CCc2cc(OC)c(OC)cc2C1,"inconclusive [inhibitor, single point]",–
CCN1/C(=C/c2cc[n+](CCCS(=O)(=O)[O-])c3ccccc23)Sc2ccccc21,–,inactive: -8.77%
Cc1ccsc1/C=C1/SC(=O)N(CC(=O)N2CCOCC2)C1=O,–,inactive: 119%
COc1cccc(C(=O)Nc2ccc3c(c2)CCCN3C(=O)c2cccs2)c1OC,"inconclusive [inhibitor, partial curve]",–
O=C(NC(=O)N1CCCCC1)c1ccccc1,–,inactive: 0.23%
COC(=O)c1ccc(CSc2nnc3n(Cc4ccccc4OC)c(=O)c4ccccc4n23)o1,"inconclusive [inhibitor, partial curve]",–
CN(C(=O)c1ccc(NC(=O)Cc2ccc(NC(=O)C3CCN(C(=O)C4CCC4)CC3)cc2)cc1)C1CC1,"inconclusive [inhibitor, single point]",–
CCOc1ncccc1C(=O)Nc1ccc(S(=O)(=O)Nc2nc(C)cc(C)n2)cc1,"inconclusive [inhibitor, single point]",–
COc1cccc(C(=O)NC2CCN(CC(=O)NCc3ccccc3OC)CC2)c1,"inconclusive [inhibitor, single point]",–
CN(C)S(=O)(=O)c1cccc(C(=O)NCCCn2ccnc2)c1,"inconclusive [inhibitor, single point]",–
COc1cc(NC(=O)C2CC2)c(OC)cc1NC(=O)c1ccco1,–,inactive: -4.6%
CCOc1ccc(NC(=O)CC2C(=O)N(c3ccc(OC)c(Cl)c3)C(=S)N2C2CC2)cc1 (configuration not stated),"inconclusive [inhibitor, single point]",–
COCCn1c(SC(C)C(=O)NCC2CCCO2)nc2scc(-c3ccc(F)cc3)c2c1=O (configuration not stated),active: 13.1 µM,–
CCCCNCc1cc(Br)c(OCc2cccs2)c(OC)c1,"inconclusive [inhibitor, partial curve, poor fit]",–
COc1ccccc1C(CNC(=O)C1CC(=O)N(Cc2ccccc2)C1)N1CCCC1 (configuration not stated),"inconclusive [inhibitor, single point]",–
CC(=O)Nc1ccc(S(=O)(=O)N2CCN(Cc3ccccc3[N+](=O)[O-])CC2)cc1,"inconclusive [inhibitor, single point]",–
CC(C)(C)C(=O)NC1CC2CCCC(C1)N2C(=O)Nc1ccc(Cl)cc1 (configuration not stated),"inconclusive [inhibitor, partial curve, poor fit]",–
CC(C)(C)C(=O)COC(=O)c1cc(S(=O)(=O)N2CCCCC2)ccc1N1CCOCC1,"inconclusive [inhibitor, partial curve, poor fit]",–
COc1ccccc1COC(=O)c1cccc(S(=O)(=O)N2CCCC2)c1,"inconclusive [inhibitor, single point]",–
Cc1ccc[n+](Cc2ccc([N+](=O)[O-])cc2)c1,"inconclusive [inhibitor, partial curve, poor fit]",–
Cc1ccc(S(=O)(=O)N2CCC(C(=O)OC(C)C(=O)N(C)c3ccccc3)CC2)cc1C (configuration not stated),"inconclusive [inhibitor, single point]",–

Structure (SMILES),Potency,"activity change, negative = inhibition"
CN(O)C(=O)Nc1ccc([N+](=O)[O-])cc1,"inconclusive [inhibitor, partial curve]",–
Cc1[nH]c(C)c(Cl)c(=O)c1Cl,active: 6.01 µM,–
Cc1cccc(-c2cc(C(=O)Nc3ccncc3)c3ccccc3n2)c1,active: 1.04 µM,–
CCN(CC)c1ccc2nc3ccc(N)cc3[n+](-c3ccccc3)c2c1,active: 0.294 µM,–
COC(=O)C(C)NC(=S)N1CCN(c2c(F)cc3c(=O)c(C(=O)O)cn(C4CC4)c3c2OC)CC1C (configuration not stated),"inconclusive [inhibitor, partial curve]",–
O=C(Nc1ccccc1N1CCN(C(=O)c2ccccc2)CC1)c1ccc(Cl)cc1,"inconclusive [inhibitor, single point]",–
FC(F)(F)c1cccc(N2CCN(C(=S)NC3CCCC3)CC2)c1,"inconclusive [inhibitor, single point]",–
Cc1ccc(S(=O)(=O)NC(=O)COc2ccccc2C)c(C)c1,–,inactive: 14.3%
Cc1ccc(OCCCC(=O)Nc2ccc(S(N)(=O)=O)cc2)cc1,–,inactive: 5.53%
Clc1cccc(Cl)c1C[n+]1ccc2ccccc2c1,active: 2.08 µM,–
CCOc1ccc(CN2CCN(CC3=Cc4cccc(OC)c4OC3)CC2CCO)cc1 (configuration not stated),active: 10.4 µM,–
O=C(c1ccccn1)N1CCCC(N2CCN(c3cccc(C(F)(F)F)c3)CC2)C1 (configuration not stated),"inconclusive [inhibitor, single point]",–
Cc1cc(S(=O)(=O)Nc2c(C)ccc3nsnc23)ccc1F,"inconclusive [inhibitor, single point]",–
COc1cc(NC(=O)CCCSc2nc(-c3ccco3)cc(C(F)(F)F)n2)cc(OC)c1OC,"inconclusive [inhibitor, single point]",–
CCn1cc(C(=O)NN)c(=O)c2cc(F)c(N3CCCCC3)cc21,"inconclusive [inhibitor, partial curve, poor fit]",–
CCOC(=O)C1(CC2CCCCO2)CCN(Cc2nccn2-c2cccc(C)c2)CC1 (configuration not stated),"inconclusive [inhibitor, full curve, poor fit]",–
COc1ccc(NS(=O)(=O)c2ccc(O)c(NC(=O)c3cc4c(C)nn(-c5ccc(F)cc5)c4s3)c2)cc1,–,inactive: 41.2%
OC(COc1ccc2c(c1)CCC2)CN1CCN(c2ccccc2F)CC1 (configuration not stated),"inconclusive [inhibitor, single point]",–
CCCNC(=O)CS(=O)(=O)Cc1nc(-c2ccccc2C)oc1C,–,inactive: 10.5%
CC(=O)c1ccc(N2CCN(C(=O)CCCn3c(=O)[nH]c4ccccc4c3=O)CC2)cc1,"inconclusive [inhibitor, partial curve, poor fit]",–
CCN(c1ccccc1)S(=O)(=O)c1cc(C(=O)Nc2ccc(Br)cc2)ccc1F,"inconclusive [inhibitor, partial curve]",–
